Experimental data reported in the supplement of paper PMC3334620.
The full ranking holds about 33,000 sequences; the median of “E-score (-0.5 to 0.5)” is about -0.036, and the highest 2% start at about 0.37. Some of the results follow.

biological target: T1, Yer064c (UniProt P40041); assay: PBM E-score (8-mer binding enrichment) (E-score (-0.5 to 0.5)); higher = stronger / more preferred TF binding; most listed sequences are background and not binding sites; conditions: protein concentration: 200 nM; construct: GST-full length
T1 sequence: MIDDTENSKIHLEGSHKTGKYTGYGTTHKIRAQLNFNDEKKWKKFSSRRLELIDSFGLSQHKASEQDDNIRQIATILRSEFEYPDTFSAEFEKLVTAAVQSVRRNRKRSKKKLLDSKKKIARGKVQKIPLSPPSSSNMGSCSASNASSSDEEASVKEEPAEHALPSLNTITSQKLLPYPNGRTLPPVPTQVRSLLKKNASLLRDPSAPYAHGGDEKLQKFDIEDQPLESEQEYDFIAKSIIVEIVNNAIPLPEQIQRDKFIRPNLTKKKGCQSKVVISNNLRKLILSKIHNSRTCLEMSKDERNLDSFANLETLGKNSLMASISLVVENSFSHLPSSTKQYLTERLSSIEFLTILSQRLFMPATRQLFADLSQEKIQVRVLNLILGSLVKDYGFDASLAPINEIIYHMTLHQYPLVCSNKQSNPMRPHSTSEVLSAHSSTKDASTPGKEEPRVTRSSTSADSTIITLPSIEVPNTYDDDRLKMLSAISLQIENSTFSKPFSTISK
How it was run: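 Each ungapped eight-base word and its reverse complement, pooled, received an E-score from the Universal PBM Analysis Suite. Underlying scans, normalised with masliner, recorded fluorescent anti-GST bound to GST-tagged yeast transcription factors. These were applied at about 100-200 nM to universal all-10-mer Agilent arrays double-stranded by primer extension.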

Row | Sequence | PBM E-score
1 | ATTTTCCC | -0.214
2 | GTATTTAA | -0.0173
3 | TCTACGAA | 0.0737
4 | TCTGCAGA | 0.172
5 | AGATCTAG | -0.14
6 | ATTTGATA | 0.169
7 | AGCATACT | -0.101
8 | CCATACTA | 0.0172
9 | CTCGTACC | -0.0914
10 | GCCTCGAC | -0.235
11 | ACGTAAGG | 0.0173
12 | AGTGGGAG | -0.0674
13 | AGTGTCGC | -0.00958
14 | ACAACCTG | -0.087
15 | ATAGATAT | -0.0311
16 | ATACACCA | 0.0312
17 | CTACCGAC | -0.128
18 | ATTTTGAC | 0.175
19 | GCCCAGCC | -0.298
20 | AAAACGGT | -0.155
21 | GACTATAA | 0.389
22 | ACTGATCC | 0.177
23 | AACCACCC | 0.14
24 | AATCACAG | 0.359
25 | CAATTACG | 0.0589

Row | Sequence | PBM E-score
26 | AAACAAAT | 0.123
27 | GCAAAACC | -0.109
28 | CTGAAACC | 0.0165
29 | CCCTAGAA | -0.24
30 | ACACGTAT | -0.0726
31 | CAGAACGG | -0.0244
32 | CGTCCCGA | -0.158
33 | AAGTACCT | -0.093
34 | CGAAATTC | -0.245
35 | ATGCTGGC | -0.175
36 | ACGATCAC | -0.076
37 | CGGAAATA | 0.0101
38 | AACTGCTT | -0.116
39 | AATAGCCC | -0.188
40 | ATTGGTTA | 0.0687
41 | TACGCGGA | 0.0427
42 | ACGCCGCG | -0.279
43 | AGAATGTA | -0.0771
44 | GGTTGCAA | -0.0993
45 | CCCGAACA | -0.0615
46 | AGGGCGAT | -0.0756
47 | CCATATCC | -0.26
48 | GCCTTCGC | -0.141
49 | CGTGCGAA | -0.165
50 | GGTACGTA | 0.00178

Row | Sequence | PBM E-score
51 | CAAGGCAA | -0.116
52 | ACCCAAAA | -0.0796
53 | ACCCGGCG | -0.173
54 | TATATACA | 0.113
55 | AGCAGACT | 0.206
56 | CAGACTGA | 0.134
57 | CTATTTCC | -0.168
58 | ACATACGT | -0.112
59 | CACACCCC | -0.052
60 | AGGGGGTG | -0.178
61 | ATAGGTCA | 0.1
62 | ACAATGAC | 0.255
63 | GAATTTAC | -0.162
64 | CGCCTGAA | -0.117
65 | ACAGGCTG | 0.0126
66 | GACAAGGC | -0.143
67 | ACGGGAAA | -0.111
68 | AATAACTG | 0.0476
69 | GCTCGAGC | -0.142
70 | ACCATTAT | -0.103
71 | CGCGTCGC | -0.139
72 | AAGGTAAA | -0.0345
73 | TGACATAA | 0.0718
74 | AACAATCT | -0.0771
75 | TATTAACA | 0.0799

Row | Sequence | PBM E-score
76 | AGAAGTGG | -0.224
77 | GCACCTAA | -0.0313
78 | AGTCGGTG | 0.274
79 | AATGCGAG | -0.0423
80 | CACGATGG | -0.0596
81 | ACGCGAAT | 0.0131
82 | GGACTAGA | 0.0793
83 | ATGAAGGC | -0.153
84 | CTTAACCA | 0.197
85 | AGATGACC | 0.136
86 | ACATGTAT | 0.0408
87 | CGCAAGCA | 0.0122
88 | CGCCCTCA | -0.254
89 | TAAACGAA | -0.0847
90 | ACCGCAGG | -0.0456
91 | AACTTCTT | 0.0156
92 | AACATAGA | -0.0377
93 | CATGTGAC | 0.234
94 | GGACCCGA | -0.0905
95 | GTGACAAA | -0.129
96 | TCGTGAAA | -0.0516
97 | TAAATACA | 0.00626
98 | AACTCTCG | -0.105
99 | TGTGCTAA | 0.0249
100 | GGACTTTA | 0.0759

Row | Sequence | PBM E-score
101 | AACCTTAG | 0.018
102 | AGGCGTCG | -0.28
103 | CAGTTATG | 0.0856
104 | AGTATGCG | -0.121
105 | CCCCGCCA | -0.14
106 | AGACTTAT | 0.208
107 | GCACCCGA | -0.206
108 | AAATAATA | 0.137
109 | AACGTGCT | -0.238
110 | CGGCAGAC | -0.0424
111 | ACCAACGG | -0.309
112 | AGCGGTTG | -0.0774
113 | AGCAGGGG | -0.282
114 | ATGGTGCC | -0.358
115 | CTGTGCTC | -0.0234
116 | GAACTCAA | 0.145
117 | AGCGGCTG | -0.17
118 | GAAAGGGA | -0.165
119 | GCACTAAC | -0.183
120 | ATCCTGGC | -0.15
121 | AATTCAGC | -0.175
122 | AATTTTGT | 0.161
123 | AGCACGAC | -0.0281
124 | CACAGTCC | 0.132
125 | CCACTGTA | -0.0726

Row | Sequence | PBM E-score
126 | AATCGGAC | 0.00956
127 | AAGTCCAC | -0.0143
128 | GCGTATCA | -0.00444
129 | CAGCGGCA | -0.135
130 | GGCGTGAA | -0.0487
131 | ACTGAGCG | 0.023
132 | ACCAGTGA | 0.192
133 | CTAGCCTC | -0.167
134 | GAATTGAA | -0.0107
135 | CGACTTGA | 0.0865
136 | CACACTAG | 0.0144
137 | ACGACGTG | -0.036
138 | TGACAGCA | 0.0239
139 | ACGAATGA | 0.152
140 | GGCTACAA | 0.115
141 | ATCGGAAA | 0.0651
142 | GCCTACCC | -0.178
143 | GTTCAAGA | 0.0547
144 | ATGGAGCA | -0.08
145 | CCGCCGTC | 0.0187
146 | GCCCTACC | -0.203
147 | AACTCCTC | -0.169
148 | GCGGCATA | -0.154
149 | TAATGAAA | 0.103
150 | TACTTACA | -0.0596

Row | Sequence | PBM E-score
151 | CAGGCGAG | -0.0443
152 | AGGACATC | -0.377
153 | CGCGCAGA | -0.059
154 | ATGGTGGG | -0.221
155 | TACGCATA | -0.0887
156 | TATCGAAA | 0.00852
157 | CTTGTCGC | -0.202
158 | ACTGAGAT | 0.133
159 | AGGGAACA | -0.149
160 | AACTAAAG | 0.0976
161 | AAATATGG | -0.0617
162 | CTTGGGCC | -0.202
163 | ATCAAGGG | 0.18
164 | GTATCAAC | 0.065
165 | CAGGATTA | 0.12
166 | ACGACGAT | 0.023
167 | CGAGCACC | -0.1
168 | CCTGACTC | 0.481
169 | CATCTTCA | -0.0602
170 | CAGAGATG | -0.0466
171 | AGACCTTC | -0.306
172 | GCCCATCA | -0.183
